The list shows a part of the results.
Assays:
HSkMC = human skeletal muscle cells; test: cytotoxicity call (relative viability < 0.9); conditions: 10 µM
HepG2 = test: cytotoxicity call (relative viability < 0.9); conditions: 10 µM
S. aureus RN4220 = test: growth inhibition call (relative growth <= 0.2); conditions: 50 µM

Structure (SMILES)	cytotoxicity call (HSkMC)	cytotoxicity call (HepG2)	growth inhibition call (S. aureus RN4220)
C=CC(=O)NCCN1CCCCC1	inactive	inactive	inactive
COc1ccc(NC(=O)N(C)C[C@H]2OCCCC[C@@H](C)Oc3ccc(NC(=O)Nc4c(C)noc4C)cc3C(=O)N([C@H](C)CO)C[C@H]2C)cc1	inactive	inactive	inactive
C[C@H](CO)N1C[C@H](C)[C@@H](CN(C)C(=O)Nc2ccc3c(c2)OCO3)Oc2c(NC(=O)c3ccncc3)cccc2C1=O	inactive	inactive	inactive
C[C@H]1CN([C@@H](C)CO)C(=O)Cc2cc(NC(=O)Nc3cc(Cl)cc(Cl)c3)ccc2O[C@H]1CN(C)S(=O)(=O)c1ccc(Oc2ccccc2)cc1	inactive	active	inactive
O=CN1CCN(C(=O)c2ccccc2)CC1	inactive	inactive	inactive
Cc1ccc(S(=O)(=O)Nc2ccc3c(c2)C(=O)N([C@@H](C)CO)C[C@H](C)[C@@H](CN(C)C(=O)Nc2ccc(C(F)(F)F)cc2)OCCCC[C@@H](C)O3)cc1	inactive	active	inactive
Cc1cccc(/C=C(\CCC(=O)O)c2nc3ccccc3s2)c1	inactive	inactive	inactive
Cc1noc(C)c1NC(=O)N(C)C[C@H]1OCCCC[C@@H](C)Oc2ccc(NS(=O)(=O)c3ccccc3)cc2C(=O)N([C@H](C)CO)C[C@@H]1C	inactive	inactive	inactive
C[C@H]1CN([C@@H](C)CO)S(=O)(=O)c2ccc(C#CC(C)(C)O)cc2O[C@H]1CN(C)Cc1ccncc1	inactive	inactive	inactive
C[C@@H]1CCCCO[C@H](CN(C)Cc2ccc(C(F)(F)F)cc2)[C@@H](C)CN([C@H](C)CO)C(=O)c2cc(NC(=O)c3ccncc3)ccc2O1	inactive	inactive	inactive

— the antibiotic and cytotoxicity screens of Wong et al. (2023)
